# From PubChem BioAssay AID1347165 (National Center for Advancing Translational Sciences (NCATS), 2019)
# About 5,700 (2.6%) of roughly 220,000 compounds were called active. This list was built around the results that the source calls inconclusive (neither active nor inactive); the mix of calls is not that of the screen. Calls come from the whole dose curve; as a rule, active = well fitted inhibition curve with a large enough effect; inconclusive = small, poorly fitted or top-dose-only effect; inactive = no such curve, though single readings can be large or run the other way. Where the call is inconclusive, the potency comes from a doubtful curve fit.
# Target: Lysine-specific demethylase 5B (Homo sapiens) (UniProt Q9UGL1)
# UniProt Q9UGL1, sequence (Q9UGL1 whole entry, looked up): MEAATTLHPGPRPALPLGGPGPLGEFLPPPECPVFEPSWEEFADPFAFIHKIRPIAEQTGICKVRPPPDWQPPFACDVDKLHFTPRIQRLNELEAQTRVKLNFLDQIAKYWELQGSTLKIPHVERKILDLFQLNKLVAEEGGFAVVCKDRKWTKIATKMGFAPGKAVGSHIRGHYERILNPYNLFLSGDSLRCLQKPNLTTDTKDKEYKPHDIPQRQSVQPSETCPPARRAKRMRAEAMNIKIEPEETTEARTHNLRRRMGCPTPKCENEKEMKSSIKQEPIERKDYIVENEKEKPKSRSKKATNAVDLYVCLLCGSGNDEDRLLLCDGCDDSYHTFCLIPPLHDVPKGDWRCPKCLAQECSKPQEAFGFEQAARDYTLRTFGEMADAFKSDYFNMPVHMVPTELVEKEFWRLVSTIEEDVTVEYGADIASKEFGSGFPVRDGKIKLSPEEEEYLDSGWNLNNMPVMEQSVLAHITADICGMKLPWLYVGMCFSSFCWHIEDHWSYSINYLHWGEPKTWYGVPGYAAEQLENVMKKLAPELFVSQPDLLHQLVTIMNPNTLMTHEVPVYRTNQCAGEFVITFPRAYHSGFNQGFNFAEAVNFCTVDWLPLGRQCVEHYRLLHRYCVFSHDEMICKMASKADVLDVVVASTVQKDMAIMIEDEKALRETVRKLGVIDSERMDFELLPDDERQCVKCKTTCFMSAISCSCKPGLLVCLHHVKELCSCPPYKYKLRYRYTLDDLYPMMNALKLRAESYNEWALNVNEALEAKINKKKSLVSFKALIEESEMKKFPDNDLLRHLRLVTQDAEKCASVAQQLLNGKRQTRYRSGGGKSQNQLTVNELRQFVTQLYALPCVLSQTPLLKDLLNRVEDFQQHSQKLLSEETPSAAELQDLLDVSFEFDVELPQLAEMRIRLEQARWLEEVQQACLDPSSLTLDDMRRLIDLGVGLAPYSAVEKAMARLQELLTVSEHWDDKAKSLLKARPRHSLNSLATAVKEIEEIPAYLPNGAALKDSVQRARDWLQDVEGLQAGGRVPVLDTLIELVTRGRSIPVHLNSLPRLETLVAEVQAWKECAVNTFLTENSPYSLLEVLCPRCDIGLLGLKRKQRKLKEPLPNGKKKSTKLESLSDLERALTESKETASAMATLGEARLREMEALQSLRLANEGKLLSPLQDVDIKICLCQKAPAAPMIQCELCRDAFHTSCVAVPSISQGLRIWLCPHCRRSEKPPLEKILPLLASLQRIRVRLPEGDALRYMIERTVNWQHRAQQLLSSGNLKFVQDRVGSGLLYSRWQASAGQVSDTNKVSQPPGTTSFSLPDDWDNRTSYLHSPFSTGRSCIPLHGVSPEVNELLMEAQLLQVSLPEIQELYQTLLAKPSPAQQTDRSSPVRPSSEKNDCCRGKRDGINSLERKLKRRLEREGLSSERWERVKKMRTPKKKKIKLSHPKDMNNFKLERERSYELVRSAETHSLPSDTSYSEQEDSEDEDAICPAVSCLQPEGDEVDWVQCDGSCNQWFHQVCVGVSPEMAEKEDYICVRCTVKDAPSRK
# Assay: Primary screen for KDM5B Histone Demethylases FDH-coupled qHTS; note: nearly all actives have a fitted effect of over 70% in size; for activity change, negative = inhibition: 0% is about no effect
# Settings: FDH-coupled NADH fluorescence (FDH is formaldehyde dehydrogenase); activity change, negative = inhibition: at 57.7 µM (top of the series) unless noted
# How it was run: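 Here, H3K4me3 peptide (12.5 µM in substrate mix) is demethylated by KDM5BΔAP, 200 nM final, after 10 min compound exposure. Formaldehyde product is coupled through FDH (0.25 U/mL in mix) to NADH fluorescence; 30-min ΔRFU feeds dose-response curves.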
# Potency is the fitted concentration of half-maximal effect; tags give direction and shape of the fitted curve.
Compound,Potency,"activity change, negative = inhibition"
Cc1cccc(N2CCN(c3ccc(C(=O)O)cc3NC(=O)c3ccccc3F)CC2C)c1 (stereo unspecified),"inconclusive: 17.8 µM [inhibitor, partial curve, poor fit]",–
CC(=O)NCc1ccc(-c2csc(NC3CC3)n2)s1,"inconclusive: 22.4 µM [inhibitor, partial curve, poor fit]",–
COC(=O)C1=C(c2ccccc2)c2ccccc2S(=O)(=O)N1CC(=O)Nc1ccccc1C(F)(F)F,"inconclusive: 50.1 µM [inhibitor, single point]",–
COCCNC(=O)N1[C@@H]2CC[C@H]1CC(NC(=O)c1ccc(F)cc1)C2 (stereo partly specified),–,inactive: 4.87%
COCCn1c(COc2ccc(C(C)(C)c3ccccc3)cc2)n[nH]c1=S,–,inactive: -21.3%
CCN1CCN(C(c2ccccc2)c2c(O)cc(C)n(CCOC)c2=O)CC1 (stereo unspecified),"inconclusive: 39.8 µM [inhibitor, single point]",–
Cc1cc(Cl)ccc1NC(=O)CN1C(=O)C(=O)c2ccccc21,"inconclusive: 17.8 µM [inhibitor, partial curve, poor fit]",–
COC(=O)c1ccc(CN(C)C(C)C(=O)Nc2cc(C)ccc2C)cc1 (stereo unspecified),–,inactive: -12.4%
O=C(CSc1nc(=O)n(Cc2cccnc2)c2c1CCC2)N1CCCCC1,–,inactive: -27.8%
CC(=O)Nc1ccc(C(=O)NC2CCN(c3cc(-c4ccc(F)cc4)[nH]n3)C2)cc1 (stereo unspecified),"inconclusive: 17.8 µM [inhibitor, partial curve, poor fit]",–
Cc1cc2c(c(=O)n1CCN(C)C)C(c1cccc(Br)c1)C(C#N)=C(N)O2 (stereo unspecified),–,inactive: 14.7%
Clc1ccc(CSc2nc3ncccc3[nH]2)cc1,–,inactive: 3.45%
CCCc1ccc(NC(=O)C2CCN(c3cnccn3)CC2)cc1,"inconclusive: 35.5 µM [inhibitor, single point]",–
Cc1ccc(-n2nc3n(c2=O)CCN(C(=O)c2ccc(Cl)nc2)C3)cc1,active: 25.1 µM,–
COCCOC1CCN(C(=O)NCc2ccccc2)CC1,–,inactive: 9.63%
C[n+]1cc(-c2ccccc2)oc1-c1ccccc1,"inconclusive: 28.2 µM [inhibitor, partial curve, poor fit]",–
O=C(Cn1nc(-c2cccs2)ccc1=O)NC1CCCc2c1[nH]c1ccccc21 (stereo unspecified),"inconclusive: 31.6 µM [inhibitor, partial curve]",–
COc1cccc(Cn2cc(S(=O)(=O)c3ccc(C)cc3)c(=O)c3cc4c(cc32)OCO4)c1,"inconclusive: 17.8 µM [inhibitor, partial curve, poor fit]",–
COc1ccc(NC(=O)c2ccco2)cc1NC(=O)COc1ccc(C)cc1C,"inconclusive: 3.16 µM [inhibitor, partial curve, poor fit]",–
COc1ccc(OC)c(CNC(=O)C2COc3ccccc3C2)c1 (stereo unspecified),–,inactive: -11.9%
O=C(NCc1nnc2n1C(C(=O)O)CC2)C1CCCC1 (stereo unspecified),"inconclusive: 112 µM [inhibitor, partial curve, poor fit]",–
CCN1CCN(CCCNC(=O)Cn2nc(C)n3c(cc4cc(C)ccc43)c2=O)CC1,"inconclusive: 31.6 µM [inhibitor, partial curve, poor fit]",–

Compound,Potency,"activity change, negative = inhibition"
CN(C)CCCn1c(=O)n(C)c(=O)c2[nH]cnc21,–,inactive: -9.24%
O=S(=O)(Nc1nc2ccccc2nc1NCC1CCCO1)c1ccc(F)cc1 (stereo unspecified),"inconclusive: 35.5 µM [inhibitor, partial curve, poor fit]",–
Cc1cc(OCc2nc3ccccc3s2)ccc1N,"inconclusive: 39.8 µM [inhibitor, partial curve, poor fit]",–
O=C(Cc1cccs1)Nc1cccc(-c2nc3cc(Cl)ccc3o2)c1,–,inactive: 14.1%
CC(C)C(=O)Nc1ccc2[nH]cc(C(C(=O)O)N3C[C@H](C)C[C@H](C)C3)c2c1 (stereo partly specified),–,inactive: 6.77%
COc1ccc(C(=O)N2CCN(c3cc(-c4cccs4)[nH]n3)CC2)cc1,"inconclusive: 25.1 µM [inhibitor, partial curve]",–
Cn1nc(C(=O)N2CCCC(CN3CCCC3)CC2)c2ccccc21 (stereo unspecified),"inconclusive: 22.4 µM [inhibitor, single point]",–
CC(NC(=O)c1ccc(-c2ccc(F)cc2)o1)c1ccccc1 (stereo unspecified),"inconclusive: 20 µM [inhibitor, partial curve, poor fit]",–
CCOC(=O)c1cc2cccc(C(C)C)c2[nH]1,"inconclusive: 28.2 µM [inhibitor, partial curve, poor fit]",–
COc1ccc(-n2nnnc2/C=C/Nc2cc(C(F)(F)F)ccc2OC)cc1,"inconclusive: 31.6 µM [inhibitor, partial curve, poor fit]",–
COc1ccc(N2CCN(C(=O)CCn3cnc4onc(-c5ccc(F)cc5)c4c3=O)CC2)cc1,–,inconclusive: -34.4% [inhibitor]
CCOc1ccc(C2NC(=O)N(CCC(C)C)C3=C2C(=O)OC3)cc1 (stereo unspecified),"inconclusive: 20 µM [inhibitor, single point]",–
CC(C)(C)C1CCc2c(sc(NC(=O)c3ccncc3)c2C(=O)Nc2ccccc2Cl)C1 (stereo unspecified),"inconclusive: 44.7 µM [inhibitor, single point]",–
O=C1CCN(C(=O)c2cccs2)CCCC(C(=O)N2CCN(c3ccccn3)CC2)CCN1 (stereo unspecified),"inconclusive: 28.2 µM [inhibitor, partial curve, poor fit]",–
CN(C)c1ccc(C(=O)NC2CCCN(c3cc(-c4ccc(F)cc4)[nH]n3)C2)cc1 (stereo unspecified),"inconclusive: 35.5 µM [inhibitor, partial curve, poor fit]",–
CC(C)CCNC(=O)c1cccnc1N1CC2CC(C1)[C@H]1CCCC(=O)N1C2 (stereo partly specified),"inconclusive: 31.6 µM [inhibitor, partial curve]",–
CC(C)N1Cc2cc(C(=O)Nc3cccc4c3CCCC4)sc2C1,"inconclusive: 12.6 µM [inhibitor, partial curve]",–
O=[S+]([O-])(c1cccs1)N1CCCC2(CC(c3cccc(C(F)(F)F)c3)=NO2)C1 (stereo unspecified),"inconclusive: 39.8 µM [inhibitor, single point]",–
Cc1ncoc1C(=O)N1CC(c2noc(C3CCCN3CC3CC3)n2)C1 (stereo unspecified),"inconclusive: 22.4 µM [inhibitor, single point]",–
CC(=O)NC1(C)CCN(Cc2ccc(-c3cccc(C(F)(F)F)c3)cc2)C1 (stereo unspecified),"inconclusive: 22.4 µM [inhibitor, partial curve, poor fit]",–
NC(=O)NCC(=O)N1CCc2c(cccc2S(=O)(=O)N2CCOCC2)C1,–,inactive: 13.1%
CC1=C(C(=O)OCc2ccc(C)cc2)C(c2ccccc2Cl)CC(=O)N1 (stereo unspecified),"inconclusive: 12.6 µM [inhibitor, partial curve, poor fit]",–

Compound,Potency,"activity change, negative = inhibition"
CCc1ccc(C(=O)NC2CCN(c3cc(-c4cccs4)[nH]n3)C2)cc1 (stereo unspecified),"inconclusive: 12.6 µM [inhibitor, partial curve, poor fit]",–
CCN(CC)C(=O)Cc1n[nH]c(=O)c2ccccc12,–,inactive: -13.6%
CC(C)(C)n1ncc2c1NC(=O)CC21C(=O)Nc2cccc(Cl)c21 (stereo unspecified),–,inactive: 6.08%
c1ccc(CCCc2noc(-c3ccc(N4CCOCC4)nc3)n2)cc1,active: 35.5 µM,–
COC(=O)COc1ccc2c(C)c(CC(=O)OC)c(=O)oc2c1,"inconclusive: 31.6 µM [inhibitor, partial curve, poor fit]",–
COCCNC(=O)C1CCCN(Cc2ccncc2)CCC(=O)NCC1 (stereo unspecified),"inconclusive: 22.4 µM [inhibitor, single point]",–
CCOc1ccc(CN(C)Cc2cc(=O)oc3cc(C)ccc23)cc1,–,inactive: -1.82%
CC1=C[C@@H](CNC(=O)C2CCCCC2)[C@H](C(C)C)C[C@H]1CC(=O)N1CCN(c2ccccn2)CC1,active: 35.5 µM,–
CC1CSc2ccc(S(=O)(=O)NCCc3ccccc3)cc2NC1=O (stereo unspecified),–,inactive: -3.99%
COc1ccc2[nH]c3c(c2c1)CCNC31CCN(C(=O)Cc2ccccc2)CC1,"inconclusive: 20 µM [inhibitor, partial curve, poor fit]",–
O=C(NCc1nnc2ccc(-c3ccccc3)nn12)C1CCCCC1,"inconclusive: 28.2 µM [inhibitor, partial curve, poor fit]",–
Cc1ccc(OCc2ccc(-c3nc(C#N)c(N4CCC(C)CC4)o3)o2)cc1,"inconclusive: 25.1 µM [inhibitor, partial curve, poor fit]",–
c1cc(-c2ncon2)cc(N2CCc3nc[nH]c3C2)n1,"inconclusive: 28.2 µM [inhibitor, partial curve, poor fit]",–
CCc1cccc(C)c1NC(=O)C(C)Sc1nc2c(c(=O)[nH]1)CCCC2 (stereo unspecified),"inconclusive: 2 µM [inhibitor, full curve, poor fit]",–
COCCn1c(SCc2ccc3c(c2)OCO3)nnc1-c1ccc(Cl)cc1,–,inactive: 17.8%
Cn1nc(-c2ccc3c(c2)OCCO3)nc1N1CCCCC1,"inconclusive: 22.4 µM [inhibitor, partial curve, poor fit]",–
CCCN(CC1CC1)C(=O)c1ccc2c(c1)C(O)CCCCCN2C (stereo unspecified),"inconclusive: 25.1 µM [inhibitor, partial curve, poor fit]",–
COc1ccc(OC)c(NC(=O)c2cc3c(OC)c(OC)c(OC)cc3[nH]2)c1,"inconclusive: 25.1 µM [inhibitor, single point]",–
CCc1ccccc1NC(=O)Cn1cnc2c(cnn2-c2cc(Cl)ccc2C)c1=O,"inconclusive: 39.8 µM [inhibitor, single point]",–
Cc1ccc(C(=O)Nc2ccc(OCc3cc(=O)n4c5c(sc4n3)CCCC5)cc2)cc1,–,inconclusive: -37.8% [inhibitor]
O=C(CSc1n[nH]c(-c2ccccc2)n1)Nc1cccc(C(=O)Nc2cccc(C(F)(F)F)c2)c1,–,inactive: -15.7%
CCOc1ccc(N(CC(=O)NCc2ccc(Cl)cc2)S(=O)(=O)c2c(C)noc2C)cc1,"inconclusive: 22.4 µM [inhibitor, partial curve, poor fit]",–
